Source: article PMC9911399, “Two distinct binding modes provide the RNA-binding protein RbFox with extraordinary sequence specificity”
Where a chain is given by its changes, count along the chain named. The list shows a part of the results.

T1: RBFOX1 RRM (Homo sapiens, UniProt Q9NWB1 109-208)
T1 sequence: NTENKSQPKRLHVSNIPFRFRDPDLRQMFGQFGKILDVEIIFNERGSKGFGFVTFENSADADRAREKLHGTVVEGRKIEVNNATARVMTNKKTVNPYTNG

B1: CCGUAGA (DNA:RNA)
RNA: GGGAGACCGGAAUUCAGAUUGUCCCCGUAGAUUAAAUCCCGUCGUAGCCACCA
DNA 1: CAATCTGAATTCCGGTCTCCC
DNA 2: TGGTGGCTACGACGGGATT
B2: AGCAUUU (DNA:RNA)
RNA: GGGAGACCGGAAUUCAGAUUGUCCAGCAUUUUUAAAUCCCGUCGUAGCCACCA
DNA 1: CAATCTGAATTCCGGTCTCCC
DNA 2: TGGTGGCTACGACGGGATT
B3: UUCGACG (DNA:RNA)
RNA: B2 RNA with A25U, G26U, A28G, U29A, U30C, U31G
DNA 1: CAATCTGAATTCCGGTCTCCC
DNA 2: TGGTGGCTACGACGGGATT
B4: CUGGCGG (DNA:RNA)
RNA: B1 RNA with C26U, U28G, A29C, A31G
DNA 1: CAATCTGAATTCCGGTCTCCC
DNA 2: TGGTGGCTACGACGGGATT
B5: AAAACGA (DNA:RNA)
RNA: B2 RNA with G26A, C27A, U29C, U30G, U31A
DNA 1: CAATCTGAATTCCGGTCTCCC
DNA 2: TGGTGGCTACGACGGGATT
B6: AACGUAA (DNA:RNA)
RNA: B2 RNA with G26A, A28G, U30A, U31A
DNA 1: CAATCTGAATTCCGGTCTCCC
DNA 2: TGGTGGCTACGACGGGATT
B7: AAGUGGU (DNA:RNA)
RNA: B1 RNA with C25A, C26A, A29G, A31U
DNA 1: CAATCTGAATTCCGGTCTCCC
DNA 2: TGGTGGCTACGACGGGATT
B8: GCGCGAG (DNA:RNA)
RNA: B1 RNA with C25G, U28C, A29G, G30A, A31G
DNA 1: CAATCTGAATTCCGGTCTCCC
DNA 2: TGGTGGCTACGACGGGATT
B9: UCACCGG (DNA:RNA)
RNA: B1 RNA with C25U, G27A, U28C, A29C, A31G
DNA 1: CAATCTGAATTCCGGTCTCCC
DNA 2: TGGTGGCTACGACGGGATT
B10: AUAAACC (DNA:RNA)
RNA: B2 RNA with G26U, C27A, U29A, U30C, U31C
DNA 1: CAATCTGAATTCCGGTCTCCC
DNA 2: TGGTGGCTACGACGGGATT
B11: AACCGAU (DNA:RNA)
RNA: B2 RNA with G26A, A28C, U29G, U30A
DNA 1: CAATCTGAATTCCGGTCTCCC
DNA 2: TGGTGGCTACGACGGGATT
B12: UCGUAGC (DNA:RNA)
RNA: B1 RNA with C25U, A31C
DNA 1: CAATCTGAATTCCGGTCTCCC
DNA 2: TGGTGGCTACGACGGGATT
B13: GCGUCUU (DNA:RNA)
RNA: B1 RNA with C25G, A29C, G30U, A31U
DNA 1: CAATCTGAATTCCGGTCTCCC
DNA 2: TGGTGGCTACGACGGGATT
B14: CCUGUUG (DNA:RNA)
RNA: B2 RNA with A25C, G26C, C27U, A28G, U31G
DNA 1: CAATCTGAATTCCGGTCTCCC
DNA 2: TGGTGGCTACGACGGGATT
B15: CCUGGAC (DNA:RNA)
RNA: B1 RNA with G27U, U28G, A29G, G30A, A31C
DNA 1: CAATCTGAATTCCGGTCTCCC
DNA 2: TGGTGGCTACGACGGGATT
B16: GUACUUG (DNA:RNA)
RNA: B2 RNA with A25G, G26U, C27A, A28C, U31G
DNA 1: CAATCTGAATTCCGGTCTCCC
DNA 2: TGGTGGCTACGACGGGATT
B17: AGAAACC (DNA:RNA)
RNA: B2 RNA with C27A, U29A, U30C, U31C
DNA 1: CAATCTGAATTCCGGTCTCCC
DNA 2: TGGTGGCTACGACGGGATT
B18: CCGUUGC (DNA:RNA)
RNA: B1 RNA with A29U, A31C
DNA 1: CAATCTGAATTCCGGTCTCCC
DNA 2: TGGTGGCTACGACGGGATT
B19: CCCUUGU (DNA:RNA)
RNA: B1 RNA with G27C, A29U, A31U
DNA 1: CAATCTGAATTCCGGTCTCCC
DNA 2: TGGTGGCTACGACGGGATT
B20: UCCACGU (DNA:RNA)
RNA: B2 RNA with A25U, G26C, U29C, U30G
DNA 1: CAATCTGAATTCCGGTCTCCC
DNA 2: TGGTGGCTACGACGGGATT

Each binder was assayed against T1, RBFOX1 RRM (assay: EMSA; HiTS-Eq, 1 nM pool, 10 min; buffer printed only for the single-RNA assays: 10 mM Tris pH 7.5, 150 mM NaCl, 3.4 mM EDTA, 0.001% NP-40, 30 C). Details: tags: His6 N-terminal (pET28a); label: 5' 32P.
Outline: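 Purified RbFox RRM (wild type or mutant) was equilibrated for 10 min in 50 µL with 1 nM of a 5′-radiolabelled pool of RNA with 7 randomized nucleotides, its flanks annealed to DNA oligonucleotides, across increasing protein concentrations. Free RNA was separated by 8% native PAGE, excised, reverse-transcribed, PCR-barcoded and sequenced on an Illumina HiSeq 2500. Relative association constants came from read-count changes of each variant against the control reaction, normalised to the cognate motif.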

Binder	binding signal
B1	0.00944 KA relative to UGCAUGU
B2	0.00735 KA relative to UGCAUGU
B3	0.00729 KA relative to UGCAUGU
B4	0.00866 KA relative to UGCAUGU
B5	0.00078 KA relative to UGCAUGU
B6	0.000574 KA relative to UGCAUGU
B7	0.0096 KA relative to UGCAUGU
B8	0.0165 KA relative to UGCAUGU
B9	0.00841 KA relative to UGCAUGU
B10	0.000687 KA relative to UGCAUGU
B11	0.00313 KA relative to UGCAUGU
B12	0.0085 KA relative to UGCAUGU
B13	0.0135 KA relative to UGCAUGU
B14	0.0232 KA relative to UGCAUGU
B15	0.009 KA relative to UGCAUGU
B16	0.0159 KA relative to UGCAUGU
B17	0.00391 KA relative to UGCAUGU
B18	0.0124 KA relative to UGCAUGU
B19	0.0119 KA relative to UGCAUGU
B20	0.00615 KA relative to UGCAUGU
